{"source": "patent US11365205B2", "about": "(Aurigene Discovery Technologies Limited, priority 2018, dated 2022)"}
{"tested_on": "Z138 cells", "assay": "Z138 cell proliferation assay (XTT)", "type": "cell-based", "settings": "7 days, XTT readout, read-out: Z-138 GI50", "protocol": "(§1) Z138 Cell Proliferation Assay:\n(§2) Z138 cells were seeded in a 96-well round-bottom plate and treated with varying concentration of compound. The final DMSO concentration was maintained at 0.05%. The selected compounds of present invention were screened in a 9-point dose response format starting with 10 μM and ⅓^rd serial dilution. On the 4th day, cells were spun down and media was replaced while maintaining the initial compound concentration in each well. At the end of the 7th day, cells were spun down and media was aspirated. 50 μL of XTT containing media was added to the wells. The plates were read using the M3 spectrophotometer at 465 nm. GI50 values were calculated by fitting the dose response data to sigmoidal curve fitting equation using GraphPad Prism software V7. […]", "units": {"GI50": "nM"}}
{"smiles": "N#Cc1ccc(CN2CCN(CC(O)CN3CCc4ccccc4C3)C2=O)cc1", "note": "(single isomer, unassigned) [Example 18b, 4-((3-(3-(3,4-dihydroisoquinolin-2(1H)-yl)-2-hydroxypropyl)-2-oxoimidazolidin-1-yl)methyl)benzonitrile]", "GI50": "> 1000"}
{"smiles": "N#Cc1ccc(CN2CCN(CC(O)CN3CCc4ccccc4C3)C2=O)nc1", "note": "(single isomer, unassigned) [Example 35b, 6-((3-(3-(3,4-Dihydroisoquinolin-2(1H)-yl)-2-hydroxypropyl)-2-oxoimidazolidin-1-yl)methyl)nicotinonitrile]", "GI50": "> 1000"}
{"tested_on": "Z138 cells", "assay": "Z138 cell proliferation assay (XTT)", "type": "cell-based", "settings": "Homo sapiens, Z-138, 168 h, 7 days, XTT readout", "protocol": "as §1, §2", "units": {"GI50": "nM"}}
{"smiles": "Cc1ccc(CN2CCN(CC(O)CN3CCc4ccccc4C3)C2=O)cn1", "note": "(stereo not shown) [Example 19, 1-(3-(3,4-dihydroisoquinolin-2(1H)-yl)-2-hydroxypropyl)-3-((6-methylpyridin-3-yl)methyl)imidazolidin-2-one]", "GI50": "> 1000"}
{"smiles": "CC1(C)CN(Cc2ccc(C#N)cn2)C(=O)N1CC(O)CN1CCc2ccccc2C1", "note": "(stereo not shown) [Example 38, 6-((3-(3-(3,4-Dihydroisoquinolin-2(1H)-yl)-2-hydroxypropyl)-4,4-dimethyl-2-oxoimidazolidin-1-yl)methyl)nicotinonitrile]", "GI50": "< 500"}
{"smiles": "Cc1cc(CN2CCN(CC(O)CN3CCc4ccccc4C3)C2=O)ccc1C#N", "note": "(stereo not shown) [Example 37]", "GI50": "< 500"}
{"smiles": "N#Cc1ccc(CN2CCN(CC(O)CN3CCc4ccccc4C3)C2=O)nc1", "note": "(stereo not shown) [Example 35, 6-((3-(3-(3,4-Dihydroisoquinolin-2(1H)-yl)-2-hydroxypropyl)-2-oxoimidazolidin-1-yl)methyl)nicotinonitrile]", "GI50": "< 500"}
{"smiles": "CC1(C)C(=O)N(Cc2ccc(C#N)cc2)C(=O)N1CC(O)CN1CCc2ccccc2C1", "note": "(stereo not shown) [Example 24, 4-((3-(3-(3,4-dihydroisoquinolin-2(1H)-yl)-2-hydroxypropyl)-4,4-dimethyl-2,5-dioxoimidazolidin-1-yl)methyl)benzonitrile]", "GI50": "< 500"}
{"smiles": "Cc1ccc(CN2CC(C)(C)N(CC(O)CN3CCc4ccccc4C3)C2=O)cc1", "note": "(stereo not shown) [Example 5, 3-(3-(3,4-dihydroisoquinolin-2(1H)-yl)-2-hydroxypropyl)-4,4-dimethyl-1-(4-methylbenzyl)imidazolidin-2-one]", "GI50": "< 500"}
{"smiles": "C=C(C)c1ccc(CN2CCN(CC(O)CN3CCc4ccccc4C3)C2=O)cn1", "note": "(stereo not shown) [Example 26]", "GI50": "510 to 1000"}
{"smiles": "N#Cc1ccc(N2CCN(CC(O)CN3CCc4ccccc4C3)C2=O)cc1", "note": "(stereo not shown) [Example 33, 4-(3-(3-(3,4-dihydroisoquinolin-2(1H)-yl)-2-hydroxypropyl)-2-oxoimidazolidin-1-yl)benzonitrile]", "GI50": "> 1000"}
{"smiles": "CC1(C)CN(Cc2ccc(C#N)cc2)C(=O)N1CC(O)CN1CCc2ccccc2C1", "note": "(stereo not shown) [Example 2]", "GI50": "< 500"}
{"smiles": "N#Cc1cccc(CN2CCN(CC(O)CN3CCc4ccccc4C3)C2=O)n1", "note": "(stereo not shown) [Example 36, 6-((3-(3-(3,4-Dihydroisoquinolin-2(1H)-yl)-2-hydroxypropyl)-2-oxoimidazolidin-1-yl)methyl)picolinonitrile]", "GI50": "> 1000"}
{"smiles": "N#Cc1ccc(CN2CCN(CC(O)CN3CCc4ccccc4C3)C2=O)cc1F", "note": "(stereo not shown) [Example 39, 4-((3-(3-(3,4-Dihydroisoquinolin-2(1H)-yl)-2-hydroxypropyl)-2-oxo-imidazolidin-1-yl)methyl)-2-fluorobenzonitrile]", "GI50": "510 to 1000"}
{"smiles": "CC(=O)c1ccc(CN2CCN(CC(O)CN3CCc4ccccc4C3)C2=O)cn1", "note": "(stereo not shown) [Example 32, 1-((6-Acetylpyridin-3-yl)methyl)-3-(3-(3,4-dihydroisoquinolin-2(1H)-yl)-2-hydroxypropyl)imidazolidin-2-one]", "GI50": "510 to 1000"}
{"smiles": "Cc1ccccc1CN1CCN(CC(O)CN2CCc3ccccc3C2)C1=O", "note": "(stereo not shown) [Example 16, 1-(3-(3,4-Dihydroisoquinolin-2(1H)-yl)-2-hydroxypropyl)-3-(2-methylbenzyl)imidazolidin-2-one]", "GI50": "> 1000"}
{"smiles": "Cc1ccc(CN2CC3(CC3)N(CC(O)CN3CCc4ccccc4C3)C2=O)cn1", "note": "(stereo not shown) [Example 6, 4-(3-(3,4-dihydroisoquinolin-2(1H)-yl)-2-hydroxypropyl)-6-((6-methylpyridin-3-yl)methyl)-4,6-diazaspiro[2.4]heptan-5-one]", "GI50": "< 500"}
{"smiles": "N#Cc1ccc(Cn2ccn(CC(O)CN3CCc4ccccc4C3)c2=O)cc1", "note": "(single isomer, unassigned) [Example 82b, 4-((3-(3-(3,4-dihydroisoquinolin-2(1H)-yl)-2-hydroxypropyl)-2-oxo-2,3-dihydro-1H-imidazol-1-yl)methyl)benzonitrile]", "GI50": "< 500"}
{"smiles": "N#Cc1ccc(CN2CCN(CC(O)CN3CCc4ccccc4C3)C2=O)nc1", "note": "(single isomer, unassigned) [Example 35a, 6-((3-(3-(3,4-Dihydroisoquinolin-2(1H)-yl)-2-hydroxypropyl)-2-oxoimidazolidin-1-yl)methyl)nicotinonitrile]", "GI50": "< 500"}
{"smiles": "N#Cc1ccc(CN2CCN(CC(O)CN3CCc4ccccc4C3)C2=O)cn1", "note": "(stereo not shown) [Example 21, 5-((3-(3-(3,4-dihydroisoquinolin-2(1H)-yl)-2-hydroxypropyl)-2-oxoimidazolidin-1-yl)methyl)picolinonitrile]", "GI50": "> 1000"}
{"smiles": "N#Cc1ccc(CN2CCN(CC(O)CN3CCc4ccccc4C3)C2=O)cc1", "note": "(single isomer, unassigned) [Example 18a, 4-((3-(3-(3,4-dihydroisoquinolin-2(1H)-yl)-2-hydroxypropyl)-2-oxoimidazolidin-1-yl)methyl)benzonitrile]", "GI50": "< 500"}
{"smiles": "Cc1cccc(CN2CCN(CC(O)CN3CCc4ccccc4C3)C2=O)n1", "note": "(stereo not shown) [Example 22, 1-(3-(3,4-dihydroisoquinolin-2(1H)-yl)-2-hydroxypropyl)-3-((6-methylpyridin-2-yl)methyl)imidazolidin-2-one]", "GI50": "> 1000"}
{"smiles": "Cc1ccc(CN2C(=O)N(CC(O)CN3CCc4ccccc4C3)CC2(C)C)cc1", "note": "(stereo not shown) [Example 10, 1-(3-(3,4-dihydroisoquinolin-2(1H)-yl)-2-hydroxypropyl)-4,4-dimethyl-3-(4-methylbenzyl)imidazolidin-2-one]", "GI50": "< 500"}
{"smiles": "N#Cc1ccc(CN2CCN(CC(O)CN3CCc4ccccc4C3)C2=O)cc1", "note": "(stereo not shown) [Example 18, 4-((3-(3-(3,4-dihydroisoquinolin-2(1H)-yl)-2-hydroxypropyl)-2-oxoimidazolidin-1-yl)methyl)benzonitrile]", "GI50": "< 500"}
{"smiles": "CC1(C)CN(Cc2ccc(C#N)nc2)C(=O)N1CC(O)CN1CCc2ccccc2C1", "note": "(stereo not shown) [Example 12, 5-((3-(3-(3,4-dihydroisoquinolin-2(1H)-yl)-2-hydroxypropyl)-4,4-dimethyl-2-oxoimidazolidin-1-yl)methyl)picolinonitrile]", "GI50": "< 500"}
{"smiles": "CC(C)c1ccc(CN2CCN(CC(O)CN3CCc4ccccc4C3)C2=O)cn1", "note": "(stereo not shown) [Example 28]", "GI50": "< 500"}
